Reference: the supplement of paper PMC4967469
A lower IC50 marks a more sensitive line; fits outside the tested doses are given as limits. AUC, from the same fit, is the share of area under the viability curve across the 256-fold dose range: 1 means no effect, lower means more sensitive. For part of these data: Where the top dose is marked as inferred, it was calculated from the reported fits. For part of these data: Where an entry number is given, a second screen of the drug exists; the two often differ.

Key:
Test in all cases: Viability of human cancer cell lines after 72 h of drug (GDSC screen)
Docetaxel = compound: CC(=O)O[C@@]12CO[C@@H]1C[C@H](O)[C@@]1(C)C(=O)[C@H](O)C3=C(C)[C@@H](OC(=O)[C@H](O)[C@@H](NC(=O)OC(C)(C)C)c4ccccc4)C[C@@](O)([C@@H](OC(=O)c4ccccc4)[C@H]21)C3(C)C [Docetaxel]; conditions: top dose 0.0125 µM
Protocol: (§1)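 Human cancer cell lines in 384-well plates, medium with 10% serum, drug for 72 h over a 256-fold dose range (nine 2-fold or five 4-fold steps up to the top dose). Adherent lines were fixed and stained with the nucleic acid dye Syto60, suspension lines read with resazurin; signal relative to control wells, capped at 0 and 100%. One two-parameter sigmoid per drug and line, fitted in a mixed model over all curves with the slope shared within a line.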

AMG-706 = compound: CC1(C)CNc2cc(NC(=O)c3cccnc3NCc3ccncc3)ccc21 [AMG-706]; conditions: top dose 2 µM; top dose inferred
Protocol: as §1

JNK Inhibitor VIII = compound: CCOc1nc(NC(=O)Cc2cc(OC)ccc2OC)cc(N)c1C#N [JNK Inhibitor VIII]; conditions: top dose 10 µM; top dose inferred
Protocol: as §1

NSC-207895 = compound: CN1CCN(c2ccc([N+](=O)[O-])c3no[n+]([O-])c23)CC1 [NSC-207895]; conditions: top dose 20 µM; top dose inferred
Protocol: as §1

FTI-277 = compound: COC(=O)[C@H](CCSC)NC(=O)c1ccc(NC[C@@H](N)CS)cc1-c1ccccc1 [FTI-277]; conditions: top dose 1.024 µM; top dose inferred
Protocol: as §1

YM155 = compound: COCC[n+]1c2c(n(Cc3cnccn3)c1C)C(=O)c1ccccc1C2=O [YM155]; conditions: top dose 5.12 µM
Protocol: as §1

OSI-906 = compound: C[C@]1(O)C[C@@H](c2nc(-c3ccc4ccc(-c5ccccc5)nc4c3)c3c(N)nccn32)C1 [OSI-906]; conditions: top dose 2.56 µM; top dose inferred
Protocol: as §1

SB-715992 = compound: Cc1ccc(C(=O)N(CCCN)[C@@H](c2nc3cc(Cl)ccc3c(=O)n2Cc2ccccc2)C(C)C)cc1 [SB-715992]; conditions: top dose 0.128 µM; top dose inferred
Protocol: as §1

JQ1 = compound: Cc1sc2c(c1C)C(c1ccc(Cl)cc1)=N[C@@H](CC(=O)OC(C)(C)C)c1nnc(C)n1-2 [JQ1]
Protocol: as §1

Belinostat = compound: O=C(/C=C/c1cccc(S(=O)(=O)Nc2ccccc2)c1)NO [Belinostat]; conditions: top dose 20 µM; top dose inferred
Protocol: as §1

JNJ-26854165 = compound: c1ccc2c(CCNc3ccc(Nc4ccncc4)cc3)c[nH]c2c1 [JNJ-26854165]; conditions: top dose 10 µM
Protocol: as §1

[1] = top dose 1 µM, screen: GDSC drug entry 1218, top dose inferred
[2] = top dose 2.56 µM, screen: GDSC drug entry 163

Row | Cell Line | AUC (Docetaxel) | IC50 (Docetaxel) [nM] | AUC (AMG-706) | IC50 (AMG-706) [nM] | AUC (JNK Inhibitor VIII) | IC50 (JNK Inhibitor VIII) [nM] | AUC (NSC-207895) | IC50 (NSC-207895) [nM] | AUC (FTI-277) | IC50 (FTI-277) [nM] | AUC (YM155) | IC50 (YM155) [nM] | AUC (OSI-906) | IC50 (OSI-906) [nM] | AUC (SB-715992) | IC50 (SB-715992) [nM] | AUC (JQ1; [1]) | IC50 (JQ1; [1]) [nM] | AUC (JQ1; [2]) | IC50 (JQ1; [2]) [nM] | AUC (Belinostat) | IC50 (Belinostat) [nM] | AUC (JNJ-26854165) | IC50 (JNJ-26854165) [nM]
1 | WM35 (melanoma, adherent) | 0.459 | 0.602 | 0.985 | > 2000 | 0.979 | > 10000 | 0.91 | > 20000 | 0.958 | > 1020 | 0.098 | < 20 | 0.817 | 1440 | 0.593 | 14.4 | 0.98 | > 1000 | 0.475 | 137 | 0.307 | 357 | 0.877 | > 10000
2 | CCF-STTG1 (glioma, adherent) | 0.873 | 12.2 | 0.896 | > 2000 | 0.975 | > 10000 | 0.988 | > 20000 | 0.987 | > 1020 | 0.782 | 2160 | 0.972 | > 2560 | 0.952 | > 128 | 0.971 | > 1000 | 0.954 | > 2560 | 0.988 | > 20000 | 0.93 | > 10000
3 | NCI-H1568 (lung adenocarcinoma, adherent) | 0.699 | 3.28 | 0.966 | > 2000 | 0.962 | > 10000 | 0.972 | > 20000 | 0.978 | > 1020 | 0.921 | > 5120 | 0.899 | > 2560 | 0.968 | > 128 | 0.976 | > 1000 | 0.802 | 1640 | 0.981 | > 20000 | 0.797 | 6120
4 | CAL-78 (chondrosarcoma, adherent) | 0.86 | > 12.5 | 0.941 | > 2000 | 0.975 | > 10000 | 0.985 | > 20000 | 0.973 | > 1020 | 0.335 | 104 | 0.859 | > 2560 | 0.975 | > 128 | 0.98 | > 1000 | 0.864 | > 2560 | 0.832 | 15500 | 0.911 | > 10000
5 | HT-3 (cervix, adherent) | 0.679 | 2.5 | 0.979 | > 2000 | 0.979 | > 10000 | 0.847 | 15100 | 0.964 | > 1020 | 0.029 | < 20 | 0.935 | > 2560 | 0.953 | > 128 | 0.775 | 401 | 0.664 | 461 | 0.386 | 606 | 0.908 | > 10000
6 | NCI-H2009 (lung adenocarcinoma, adherent) | 0.614 | 1.64 | 0.978 | > 2000 | 0.959 | > 10000 | 0.892 | > 20000 | 0.982 | > 1020 | 0.188 | 34.8 | 0.949 | > 2560 | 0.962 | > 128 | 0.984 | > 1000 | 0.604 | 315 | 0.922 | > 20000 | 0.87 | > 10000
7 | G-401 (kidney, adherent) | 0.601 | 1.53 | 0.98 | > 2000 | 0.982 | > 10000 | 0.539 | 1610 | 0.938 | > 1020 | 0.03 | < 20 | 0.526 | 189 | 0.803 | 71.2 | 0.977 | > 1000 | 0.872 | > 2560 | 0.46 | 960 | 0.857 | 9420
8 | HCC-56 (large intestine, adherent) | 0.951 | > 12.5 | 0.987 | > 2000 | 0.987 | > 10000 | 0.906 | > 20000 | 0.987 | > 1020 | 0.702 | 1210 | 0.698 | 584 | 0.787 | 56.9 | 0.982 | > 1000 | 0.864 | 2330 | 0.251 | 236 | 0.973 | > 10000
9 | MFE-296 (endometrium, adherent) | 0.657 | 2.2 | 0.966 | > 2000 | 0.962 | > 10000 | 0.861 | 19100 | 0.982 | > 1020 | 0.137 | 20.5 | 0.982 | > 2560 | 0.927 | > 128 | 0.981 | > 1000 | 0.747 | 868 | 0.823 | 13000 | 0.951 | > 10000
10 | H2369 (mesothelioma, adherent) | 0.679 | 2.52 | 0.935 | > 2000 | 0.946 | > 10000 | 0.981 | > 20000 | 0.658 | 178 | 0.154 | 26.1 | 0.953 | > 2560 | 0.909 | > 128 | 0.985 | > 1000 | 0.771 | 1020 | 0.607 | 2480 | 0.862 | 9040
11 | RO82-W-1 (thyroid, adherent) | 0.764 | 5.78 | 0.924 | > 2000 | 0.97 | > 10000 | 0.891 | > 20000 | 0.953 | > 1020 | 0.076 | < 20 | 0.956 | > 2560 | 0.982 | > 128 | 0.98 | > 1000 | 0.856 | > 2560 | 0.508 | 1320 | 0.944 | > 10000
